Where two headings read alike, the source gives them in different places. Bounds are passed on as bounds.

Series [1] deals with T. brucei brucei parasites (Lister 427 strain). The series is described as follows: Dose response growth inhibition assay (resazurin, 72 h). As to conditions: Trypanosoma brucei; T. b. brucei growth inhibition; read-out: Tbb pEC50 (converted). The format is cell-based. On the procedure: Greiner sterile black clear bottom 384-well assay plates were pre-dispensing with 200 nL of compound in each well, from master plates at 1 mM (100% DMSO) containing selection from the GSK compound collection. Controls of 0% response (control 1, 200 nL of 100%DMSO) and 100% response (control 2, 200 nL of 1 mM pentamidine) were included in each assay plate in columns 6 and 18, respectively. Plates containing 200 nL of 100% DMSO were included randomly in the assay, to assess quality through all process. […] After this period, 10 µL of 200 µM resazurin solution in prewarmed HMI-9 were added to each well, and plates were allowed to incubate 2 hours more prior fluorescence reading in a Wallac EnVision Multilabel Plate Reader (Perkin-Elmer). Raw fluorescent data from the Envision plate reader were uploaded into GSK HTS database (ActivityBase). Activity of each well was normalized as a percentage of inhibition per-plate basis using the following equation: [drawing 1]
For dose-response experiments, serial compound dilutions of selected hits from the primary campaign were plotted against compound concentration. Dose response master plates were prepared by 3-fold dilutions (starting with 10 mM DMSO stock solutions), providing 11 concentrations. From these master plates, 200 nL per well was stamped in final assay plates, including the same controls describe in the primary single shot assay. Compounds were dispensed as serial dilution curve format, with 11 points at 3-fold dilution and 40 µM as starting top concentration (n = 2). Growth inhibition assay was performed as described in previous assay.
A 4-parameter equation describing a sigmoidal dose-response curve was then fitted with an adjustable baseline using ActivityBase XE Runner software. Fitting of dose-response curves and EC50 determination were normalized as percentage of inhibition based on controls. The curve-fit model was based on a 4-parameter equation: [drawing 2]
Trypanosome cell culture. […]
(In general: Resazurin is reduced to fluorescent resorufin, in cell work by metabolically active cells.)

The subject of series [2] is HepG2 cells. The series is described as follows: Cytotoxicity assay (Cell Titer Glo, 48 h). As to conditions: HepG2 cytotoxicity. The method, then:
This assay was used as selectivity assay, and selected hits from the primary were test in dose response concentration against HepG2 in order to identify the level of host cell cytotoxicity. Dose response starting at 10 mM and with 3-fold dilutions for 11 points, were made in 1,536-well master plates. 50 nL per well from them were stamped in final assay plates. The human biological samples were sourced ethically and their research use was in accord with the terms of informed consent.
Cell density was adjusted to 60,000 cells/mL as working concentration in prewarmed Eagle's MEM medium. Seeding density was be checked to ensure that new monolayers are not more than ∼ 50% confluent at the time of seeding (typically 3,000 cells per well), before completing preparation of plates. […] Viability was determined by Cell Titer Glo Kit (Promega) according to manufacturer's instructions: briefly, reconstituted Cell Titer Buffer was equilibrated to room temperature prior its use and 5 µL per well were dispensed with a Multidrop Combi Reagent Dispenser. Contents were mixed on a plate orbital shaker and incubated for 10 min at room temperature, to allow the signal to stabilize before luminescence reading on ViewLux Plate Reader (Perkin-Elmer).
Raw Luminescence data from the ViewLux reader were uploaded into GSK HTS database (ActivityBase). […]

A short description of series [3]: ChromlogD assay. On the procedure:
The Chromatographic Hydrophobicity Index (CHI)[22] values were measured using reversed phase HPLC column (Luna C18 (2), Phenomenex, UK) with a fast acetonitrile gradient at starting mobile phase of pH = 7.4. CHI values are derived directly from the gradient retention times by using a calibration line obtained for standard compounds. The CHI value approximates to the volume % organic concentration when the compound elutes. […] The average error of the assay is ±3 CHI unit or ±0.25 ChromlogD.

Series [4] is described as follows: CLND kinetic solubility assay. The format is physicochemical. As to conditions: phosphate buffered saline, pH 7.4, aqueous buffer, kinetic from dmso stock; Measured; read-out: Aq Sol. The method, then:
5 µL of 10 mM DMSO stock solution was diluted to 100 µL with pH 7.4 phosphate buffered saline, equilibrated for 1 hour at room temperature, filtered through Millipore MultiscreenHTS-PCF filter plates (MSSL BPC). The filtrate was quantified by suitably calibrated flow injection Chemi-Luminescent Nitrogen Detection.

The target in series [5] is T1, Human Serum Albumin (HSA) (Homo sapiens, UniProt P02768).
T1 construct: purchased Chiral Technologies, France
The series can be described thus: Protein binding assay (HPLC stationary phase), HSA. As to conditions: Measured. Type of series: in vitro ADME. On the procedure:
Chemically bonded Human Serum Albumin (HSA) and Alpha-1-acidglycoprotein HPLC stationary phases (Chiral Technologies, France) were used for measuring compounds' binding to plasma proteins, applying linear gradient elution up to 30% iso-propanol. The run time was 6 min, including the re-equilibration of the stationary phases with the 50 mM pH7.4 ammonium acetate buffer. The obtained gradient retention times were standardised using a calibration set of mixtures as described in the references. The average standard error of the assay depends on the binding strength and kinetics of the compounds.

The target in series [6] is Cytochrome P450 (CYP450) (Homo sapiens, UniProt P08684). The series can be described thus: Cytochrome P450 inhibition profile. The format is in vitro ADME. The following applies: Measured. The method, then: The P450 inhibition profile of the inhibitors was determined as previously described.

Regarding `O=C(Nc1n[nH]c2nnc(-c3cccnc3)cc12)C1CC1` [NEU-0001228], the EC50 in series [1] is 1000 nM.
For `Nc1nccc(-c2c(-c3ccc(F)cc3)ncn2C2CCNCC2)n1` [NEU-0001231], the EC50 in series [1] was 398 nM. Also, the “HepG2 pTC50” value in series [2] was <4. This molecule returned a PFI in series [3] of 4.12.
With `CC(=O)Nc1nc(C)c(-c2cnc(Cl)c(NS(=O)(=O)c3ccccc3)c2)s1` [NEU-0001233], the EC50 in series [1] was 631 nM. Besides, in series [4], the solubility kinetic at 1 h was ≥ 308 µM. In addition, in series [3], the PFI is given as 6.43. This molecule also showed an HSA % binding in series [5] of 96.57%. Also, the IC50 in series [6] (CYP3A4, VG substrate, read-out: CYP3A4VG pXC50 (converted)) was 31600 nM; in series [6] (CYP3A4, VR substrate, read-out: CYP3A4VR pXC50 (converted)), 25100 nM.

For the origin of these results see article PMC4207660, “Identification and Characterization of Hundreds of Potent and Selective Inhibitors of Trypanosoma brucei Growth from a Kinase-Targeted Library Screening Campaign” (PLoS Neglected Tropical Diseases, 2014).
